# Test results taken from the supplement of paper PMC10126150.
# Sequences with one replicate were seen in a single cluster, so their values are uncertain.
# Tested on: ATP
# Assay: switch fluorescence ratio, 500 uM ATP over buffer (Cy3 cluster intensity, sum of 5 cycles each) (fold (ratio)); higher = stronger signal-on switching upon ATP binding; sequences stand for … in TCGTCGGCAGCGTCAGATGTGTATAAGAGACAGTTTTTTTTTTTTTTTTTTTTTTTTT…TC
# Settings: aptamer strand: ATP DNA aptamer (quencher-CACCTGGGGGAGTATTGCGGAGGAAGG + anchor), 100 nM annealed; ATP concentration: 500 uM; one replicate
# Procedure, shortened: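 Between each of five buffer/ATP cycles, the flow-cell was stripped with NaOH and re-annealed. Each cycle imaged Cy3-labelled switching-strand clusters, annealed to 100 nM quencher-labelled ATP aptamer on a modified Illumina MiSeq flow-cell, first in selection buffer and then after 15 min with 500 uM ATP at 22 °C. The fluorescence ratio is summed target-cycle over summed buffer-cycle Cy3 intensity per cluster, averaged per switch-domain sequence, with clusters outside 100-1000 RFU excluded.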
# 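Further: ATP exposure 15 min at 22 °C before imaging.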
row,Sequence,switch fluorescence ratio
1,ACTCTGATCA,1.06
2,TGAAGGGACA,1.12
3,ACTGGTTCAT,1.03
4,ATAGAAATAA,0.986
5,TGGTTTAGTA,1.02
6,TGTGGCTCTC,1.02
7,AAAAGTTACG,1.07
8,CCTAGGCGAC,2.69
9,CACAGCAGTT,1.12
10,TTTAGCCTTG,0.992
11,GAAAGTAGCC,0.982
12,AGGTGTGCCT,1.02
13,CTTCCAGGTA,1.56
14,TCAGGCTTGG,1.01
15,TGATCATTAT,0.996
16,GACGGCGCCA,1.03
17,TCTCCGAGGG,1.43
18,CTGTTTGCAT,1.09
19,CACGTCCTGT,1.02
20,TTGGCGGAAG,0.997
21,TCTTTCTGGC,0.91
22,TATGCGAACC,1.01
23,GGGTCTGACG,0.996

row,Sequence,switch fluorescence ratio
1,TTGTATGCCG,1.04
2,CGGGTTCGAC,0.943
3,CACTATTTT,0.966
4,GTTGGGATCT,0.979
5,TCGTAACTAC,2.98
6,ATCGATCAGT,0.989
7,TTCGGAGC,1.27
8,AAGGCGTT,1.01
9,CAAGTTGGGG,0.981
10,GAACAAGCGG,1.04
11,TTCAGTAGGG,1.02
12,TACTGTTACG,1.27
13,CCCTTTGCGG,1.07
14,CCGTTTACTG,1.05
15,GAACGGGCTT,0.982
16,TCGGGGAACT,1.04
17,TTGGCAGGAT,1.18
18,CCACGCCATT,1.45
19,TTCCACATAT,1.09
20,GCACTCATCG,1
21,TACGTTGGA,1.03
22,ACAGTGACTT,1.09
23,TTGAAGCGTG,0.995

row,Sequence,switch fluorescence ratio
1,CGCTCTTTTT,1.01
2,ATCGAAAAGC,1.04
3,GACTGACGGT,1.27
4,ACTACATATA,1.05
5,ATTGACGCAC,1.93
6,GGTCCCGGGC,0.979
7,AGTGCCTGTG,1.1
8,ATTACATGGG,1
9,GACTCCACGG,1.14
10,TATCGGTCCT,0.983
11,TGATGTCCGG,1.01
12,GAGGCAACAT,1.51
13,GCTAGGAATC,1.02
14,TGACTAATTG,1.01
15,AGTAGAAAGT,0.988
16,CAAATCGAAA,1
17,GGGGAGTCGC,1.03
18,TCGGGTTTCA,0.991
19,TGTGCGTGAA,1
20,ATATCAGGTT,1.01
21,AAATAGTCTT,0.999
22,TACCAAGGAT,1
23,GTAGTTACAT,0.99

row,Sequence,switch fluorescence ratio
1,GAACGGACGC,1.11
2,TTTCCGAAAA,1.01
3,CATCTGAAGG,0.96
4,GGAGGCATCG,1
5,GAAAACGTTC,0.96
6,AGATTAAAA,1.02
7,ACATTGTAGT,0.962
8,ACCGCGGTAA,0.981
9,CGGTTACACT,1.05
10,TATATCTCGT,1.05
11,TTAGCGAACT,1.1
12,CGCAGTGGGA,1
13,GTTCAAGGAC,1.02
14,ATGAGGATCC,1.03
15,TCAGCAGGGA,1.06
16,CTTGGTGTT,1
17,CGTGCTTTGG,0.954
18,AGGATGTTGA,1
19,CGCAGATTT,1.04
20,ATCCATGAGG,1
21,TTACGATAGT,1.01
22,ACATTAATCG,0.998
23,AATTTAAAGG,0.995

row,Sequence,switch fluorescence ratio
1,CGACCCACAC,1.61
2,AATTCAGTCT,0.994
3,CACACATCGG,1.07
4,CAGTTCCGTC,1.05
5,TACTATGGGT,1.04
6,GCATTCCCGT,1.08
7,TTTGTCATCC,1
8,GACGACGTAC,3.03
9,GGTGACTAAG,0.996
10,TAGGGTGGTT,1.01
11,CCTAAATCCG,1.9
12,TCGGGATCTC,1.52
13,GTGGAGACAA,0.967
14,CGTCCCACAT,1.4
15,TCAATGGGTG,1.01
16,GTTAATTGAA,1.03
17,GTCGTATTGA,1.02
18,TTATTCAACA,0.987
19,GAGCACCGTG,0.978
20,CGGTTTTTGA,0.992
21,AAATGGGTT,0.999
22,CGAGACGGGT,0.961
23,TTATTTACCA,0.958

row,Sequence,switch fluorescence ratio
1,CTCAAAGCC,1.06
2,TTGCGACTGG,0.976
3,AAAAAGGGAC,1.06
4,CATTCTACTT,1.05
5,TTATATTTGG,1.05
6,CTTTTGTGGG,0.956
7,GGTTGACACA,1.02
8,TTCGGGCC,0.988
9,CCACTCAGGT,1.47
10,GCTGGTGG,0.97
11,ATGAGTAAGT,1.01
12,GCTAGTTGAT,1
13,TTTAAAAATC,0.996
14,CGGGCAGCCG,0.902
15,CCGTGCTGGT,1.04
16,GATCCAGGA,1.04
17,ACAAAGGCGC,0.987
18,GCAGTTATTA,0.985
19,ACCTAGTAGG,0.995
20,GCATAAAACC,1.03
21,CTTACTAGGC,1.13
22,AGGGGATACC,1.01
23,ATTGGAGGGA,0.958

row,Sequence,switch fluorescence ratio
1,GCGAGATTAT,0.965
2,GACCCCTAAC,1.11
3,ATCCTCGGGC,1.04
4,TCTGAAGGGT,1.02
5,CTCCTCTCGT,1.21
6,CGTGGTCGGT,0.999
7,CCAAGTATAT,1.02
8,GCTATACTTA,1.19
9,ACGTTTG,0.998
10,TCCCCGTGGC,2.86
11,GATTTATCGT,1.01
12,GGTCTCAGTC,1.02
13,CCTCTTTATT,0.993
14,TAAAGGGG,1.09
15,CAGGTATAAC,0.964
16,GCGACAGTTT,0.967
17,TAACACATC,1.03
18,GGACAGGGAG,1.01
19,TTAGGCCGCC,0.957
20,TTTTCTAATA,0.951
